{"source": "the supplement of paper PMC3334620", "note": "In all, about 33,000 sequences were measured (“E-score (-0.5 to 0.5)”: median about -0.012, highest 2% from about 0.29 on). The list shows a part of the results."}
{"target": "T1, Ybr033w (UniProt P38073)", "T1 sequence": "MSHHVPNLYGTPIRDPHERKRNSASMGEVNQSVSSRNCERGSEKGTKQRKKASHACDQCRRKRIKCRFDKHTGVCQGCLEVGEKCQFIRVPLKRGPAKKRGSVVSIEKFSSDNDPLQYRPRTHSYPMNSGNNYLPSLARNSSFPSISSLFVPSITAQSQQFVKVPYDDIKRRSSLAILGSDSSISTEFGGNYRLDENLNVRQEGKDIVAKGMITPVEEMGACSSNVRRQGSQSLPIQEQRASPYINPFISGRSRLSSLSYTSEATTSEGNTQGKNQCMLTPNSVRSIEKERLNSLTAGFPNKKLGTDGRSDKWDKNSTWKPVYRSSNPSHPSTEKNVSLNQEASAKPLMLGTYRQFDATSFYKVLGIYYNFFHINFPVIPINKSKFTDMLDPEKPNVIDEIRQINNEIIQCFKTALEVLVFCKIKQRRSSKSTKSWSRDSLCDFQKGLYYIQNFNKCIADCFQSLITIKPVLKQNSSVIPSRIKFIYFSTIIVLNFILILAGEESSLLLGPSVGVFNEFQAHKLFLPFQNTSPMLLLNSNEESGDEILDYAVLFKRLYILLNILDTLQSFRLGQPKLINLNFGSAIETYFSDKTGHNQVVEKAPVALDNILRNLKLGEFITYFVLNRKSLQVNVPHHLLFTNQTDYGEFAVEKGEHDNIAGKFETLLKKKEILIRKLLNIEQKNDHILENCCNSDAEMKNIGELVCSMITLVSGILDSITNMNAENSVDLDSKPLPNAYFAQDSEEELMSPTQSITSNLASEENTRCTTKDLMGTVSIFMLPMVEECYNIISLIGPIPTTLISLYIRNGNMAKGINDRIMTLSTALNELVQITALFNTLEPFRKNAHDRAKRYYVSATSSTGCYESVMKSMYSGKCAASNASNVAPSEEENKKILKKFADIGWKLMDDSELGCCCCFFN", "experiment": "PBM E-score (8-mer binding enrichment) (E-score (-0.5 to 0.5)); higher = stronger / more preferred TF binding; most listed sequences are background and not binding sites", "settings": "protein concentration: 200 nM; construct: GST-full length", "method_in_brief": "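PURExpress in vitro transcription/translation supplied GST-tagged yeast transcription factors, either full-length or DNA-binding domain. Applied at about 100-200 nM to universal all-10-mer Agilent arrays double-stranded by primer extension, the bound protein was detected with fluorescent anti-GST. E-scores, modified Wilcoxon-Mann-Whitney statistics, were given by the Universal PBM Analysis Suite to ungapped eight-base words pooled with their reverse complements after masliner normalisation.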"}
{"sequence": "ACAGTGGA", "PBM E-score": 0.0657}
{"sequence": "TAGACGAA", "PBM E-score": 0.0257}
{"sequence": "AGAGTGCA", "PBM E-score": -0.114}
{"sequence": "GAGTGTCA", "PBM E-score": -0.0498}
{"sequence": "AAGAACCC", "PBM E-score": -0.105}
{"sequence": "CCCAATAC", "PBM E-score": 0.0528}
{"sequence": "ACCATAAA", "PBM E-score": 0.229}
{"sequence": "ATTTACCC", "PBM E-score": 0.156}
{"sequence": "GGAGTGTA", "PBM E-score": -0.233}
{"sequence": "AACTTGTA", "PBM E-score": 0.0769}
{"sequence": "CCCAAGCG", "PBM E-score": -0.195}
{"sequence": "GCCCACCA", "PBM E-score": -0.177}
{"sequence": "CTTTGGTA", "PBM E-score": -0.00701}
{"sequence": "ATTAACAC", "PBM E-score": 0.368}
{"sequence": "AGGAACGG", "PBM E-score": -0.00492}
{"sequence": "CATAACAG", "PBM E-score": -0.00784}
{"sequence": "CTTAAAGA", "PBM E-score": -0.102}
{"sequence": "GTCCACGA", "PBM E-score": -0.0232}
{"sequence": "AGCTAATC", "PBM E-score": 0.098}
{"sequence": "TAGCCAGA", "PBM E-score": -0.138}
{"sequence": "ACGCTCGC", "PBM E-score": -0.207}
{"sequence": "AGAGTCTG", "PBM E-score": -0.244}
{"sequence": "GGAGCTAC", "PBM E-score": -0.236}
{"sequence": "GAGATCTA", "PBM E-score": -0.0293}
{"sequence": "CATATGAA", "PBM E-score": 0.127}
{"sequence": "GTACTCGA", "PBM E-score": -0.174}
{"sequence": "TGTTACAA", "PBM E-score": 0.213}
{"sequence": "AATTGTAA", "PBM E-score": 0.188}
{"sequence": "AGCCCAGC", "PBM E-score": -0.2}
{"sequence": "ACAGGGAA", "PBM E-score": -0.0262}
{"sequence": "CATTCCTC", "PBM E-score": 0.032}
{"sequence": "GACCCTTA", "PBM E-score": -0.132}
{"sequence": "AAGATTAA", "PBM E-score": 0.289}
{"sequence": "GAAACCTA", "PBM E-score": -0.0567}
{"sequence": "AAGCTACA", "PBM E-score": 0.00981}
{"sequence": "CATCACGC", "PBM E-score": -0.0824}
{"sequence": "ATGCTTAA", "PBM E-score": 0.0681}
{"sequence": "ATGTTGCC", "PBM E-score": -0.0501}
{"sequence": "GCGTTCAC", "PBM E-score": -0.0913}
{"sequence": "CAAGCCTG", "PBM E-score": -0.108}
{"sequence": "ACTACAGT", "PBM E-score": 0.139}
{"sequence": "AGCGGCCC", "PBM E-score": -0.381}
{"sequence": "AAATGCGT", "PBM E-score": 0.073}
{"sequence": "TCATGTAA", "PBM E-score": 0.0445}
{"sequence": "ATTTGTAC", "PBM E-score": 0.228}
{"sequence": "CATAGACA", "PBM E-score": 0.0148}
{"sequence": "GAGTCTGA", "PBM E-score": -0.19}
{"sequence": "CGAGAGAC", "PBM E-score": -0.188}
{"sequence": "CAATCCGC", "PBM E-score": 0.0665}
{"sequence": "AATGCAAG", "PBM E-score": 0.175}
{"sequence": "CGTCTCAC", "PBM E-score": -0.0438}
{"sequence": "CGTAGGTC", "PBM E-score": -0.141}
{"sequence": "TGGTAAAA", "PBM E-score": 0.207}
{"sequence": "ACTAAGAT", "PBM E-score": 0.206}
{"sequence": "AACATCAA", "PBM E-score": 0.319}
{"sequence": "GCGAGTGA", "PBM E-score": -0.0502}
{"sequence": "ACTTCTCC", "PBM E-score": -0.0598}
{"sequence": "ATAGAGGG", "PBM E-score": -0.00016}
{"sequence": "ATACCTAT", "PBM E-score": 0.102}
{"sequence": "CTGGTATA", "PBM E-score": -0.11}
{"sequence": "TATTGCGA", "PBM E-score": 0.145}
{"sequence": "ACCGAGTA", "PBM E-score": 0.0143}
{"sequence": "GGCTTATA", "PBM E-score": -0.124}
{"sequence": "TCCCGCCA", "PBM E-score": -0.0875}
{"sequence": "CTATTTAC", "PBM E-score": 0.176}
{"sequence": "AATCACGC", "PBM E-score": 0.0416}
{"sequence": "ATTGGGCG", "PBM E-score": -0.0632}
{"sequence": "GAGCTGAA", "PBM E-score": -0.0998}
{"sequence": "ATATATTG", "PBM E-score": 0.14}
{"sequence": "TTCTCAAA", "PBM E-score": 0.225}
{"sequence": "CCAGTTTC", "PBM E-score": 0.0234}
{"sequence": "CACCCAGG", "PBM E-score": -0.289}
{"sequence": "TCCAAGAA", "PBM E-score": 0.105}
{"sequence": "AAGCTAAG", "PBM E-score": -0.123}
{"sequence": "CCACGGAG", "PBM E-score": -0.062}
{"sequence": "CAAACTTA", "PBM E-score": 0.191}
{"sequence": "ATTTTGGG", "PBM E-score": -0.0622}
{"sequence": "CACATACA", "PBM E-score": 0.122}
{"sequence": "GCTCTGCA", "PBM E-score": -0.174}
{"sequence": "AAGCTTAA", "PBM E-score": 0.0186}
{"sequence": "CACCACGG", "PBM E-score": -0.277}
{"sequence": "GGTCGTCA", "PBM E-score": -0.0863}
{"sequence": "AACTACCA", "PBM E-score": 0.189}
{"sequence": "CTAAACCC", "PBM E-score": -0.133}
{"sequence": "GGTCTCAA", "PBM E-score": -0.141}
{"sequence": "ATTATTAG", "PBM E-score": 0.152}
